Assay results reported in PubChem BioAssay AID686970 (National Center for Advancing Translational Sciences (NCATS), 2013).
Where “and” joins values, the source holds several entries; their conditions need not be identical. Identical values can stand only once. Out of some 360,000 compounds screened, about 6,000 (1.7%) were called active. This list was built around the results that the source calls inconclusive (neither active nor inactive); the mix of calls is not that of the screen. Calls come from the whole dose curve; as a rule, active = well fitted cell-killing curve with a large enough effect; inconclusive = small, poorly fitted or top-dose-only effect, or effect the other way; inactive = flat fitted curve, though single readings scatter. Potencies of inconclusive entries are left out as doubtful fits.

Experiment: qHTS for induction of synthetic lethality in tumor cells producing 2HG: qHTS for the HT-1080-NT fibrosarcoma cell line;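 note: NT is the 2HG producing partner of a matched IDH1 knockdown line; nearly all actives have a fitted effect of over 55% in size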;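 for activity, negative = less viability: 0% = DMSO-treated cells and -100% = media-only wells without cells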
Conditions: HT-1080-NT fibrosarcoma viability, CellTiter-Glo ATP luminescence, 48 h; activity, negative = less viability: at 46.1 µM (top of the series) unless noted
Summary of the method: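 HT-1080-NT; 750 cells/well; 5% FBS RPMI; 48 h compound, 37 degrees C; CellTiter-Glo luminescence; curve fitting and curve-class assignment.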
Potency is the fitted concentration of half-maximal effect; tags give direction and shape of the fitted curve.

| Compound | Potency | activity, negative = less viability |
| --- | --- | --- |
| CCOC(=O)c1sc(-c2ccccc2)cc1NC(=O)Nc1ccccc1 | inconclusive [cytotoxic, single point] |  |
| COCCN1CCN(C(=O)c2cc(COc3ccc(F)c(F)c3)on2)CC1 |  | inactive: 6.29% |
| O=C(CN1CCN(CCC(=O)Nc2ccccc2F)CC1)Nc1ccc(F)cc1 |  | inactive: 0.271% |
| O=C1NC[C@@H](CCCCN2C[C@H](Cc3ccc(O)cc3)N(CC3CCCCC3)C(=O)C2=O)N(CCc2ccccc2)C1=O |  | inactive: 0.973% |
| CCC(=O)N1CCN(c2ccc(Cl)cc2NC(=O)c2ccc([N+](=O)[O-])o2)CC1 | inconclusive [cytotoxic, single point] |  |
| CSCCC(NC(=O)COc1ccccc1)C(=O)N1CCN(c2cccc(C(F)(F)F)c2)CC1 (configuration not stated) | inconclusive [cytotoxic, partial curve] |  |
| CC1CCC(C(C)C)C(OC(=O)Cn2c(-c3ccc(Br)cc3)[n+](C)c3ccccc32)C1 (configuration not stated) | active: 20.6 µM and active: 10.3 µM |  |
| CC(C(=O)c1ccc(-c2ccccc2)cc1)[n+]1cccc(C(N)=O)c1 (configuration not stated) |  | inactive: -10.4% |
| COc1cc(/C=C(\C#N)C(=O)N2CCCCC2)ccc1O |  | inactive: 3.48% |
| Cc1coc(NC(=O)CSc2nc(-c3ccc(Cl)cc3)cc(C(F)(F)F)c2C#N)n1 | inconclusive [cytotoxic, full curve] |  |
| Cc1ccc(Cl)cc1N1CCN(CC(=O)NC2CCCc3ccccc32)CC1 (configuration not stated) | inconclusive [cytotoxic, single point] |  |
| Cc1nc(-c2ccc(S(=O)(=O)N3CCN(c4cccc(C)c4C)CC3)cc2)co1 | inconclusive [cytotoxic, single point] |  |
| CCC(=O)N1CCc2cc(Br)cc(S(=O)(=O)NCc3ccccc3OC)c21 |  | inactive: 9.67% |
| OCC1OC(n2cnc3c(/C=C(\O)c4ccccc4)ncnc32)C(O)C1O (configuration not stated) | inconclusive [cytotoxic, partial curve] |  |
| O=C(Nc1ccc2c(c1)OCO2)C1Cc2c(-c3ccccc3Oc3ccccc3)ccnc2O1 (configuration not stated) | inconclusive [cytotoxic, single point] |  |
| Cc1ccc(C(=O)NCCNc2ncc(C(F)(F)F)cc2Cl)cc1[N+](=O)[O-] | inconclusive [cytotoxic, partial curve] |  |
| CCOc1cc(CNCCc2ccc(S(N)(=O)=O)cc2)cc(Cl)c1OCc1ccccc1 | active: 14.1 µM |  |
| Cc1ccc(OCC(=O)c2cc(C)c(C)cc2C)c([N+](=O)[O-])n1 | inconclusive [cytotoxic, single point] |  |
| OC[C@@H]1CN(Cc2cccs2)C[C@H](n2cnc3c(N4CCCC4)ncnc32)O1 |  | inactive: 7.76% |
| COc1ccc(Cn2nc(-c3ccccc3)c(N3CCCCC3)cc2=O)cc1 | inconclusive [cytotoxic, single point] |  |
| CC(=O)c1ccc(N2Cc3ccccc3C3(CCOCC3)C2=N)cc1 | inconclusive [rising, single point] |  |

| Compound | Potency | activity, negative = less viability |
| --- | --- | --- |
| Cc1ccccc1OCC(=O)NC1CCCCCCC1 | inconclusive [cytotoxic, single point] |  |
| CCOC(=O)C1=C(CNC(C)(C)CC(C)(C)C)NC(=O)NC1c1cccc([N+](=O)[O-])c1 (configuration not stated) | inconclusive [cytotoxic, single point] |  |
| Cc1cc(S(=O)(=O)N2CCN(c3c(C)cccc3C)CC2)ccc1F | inconclusive [cytotoxic, partial curve] |  |
| CCOc1ccccc1NC(=S)N1CCN(c2nc(-c3ccc(F)cc3)cs2)CC1 | inconclusive [cytotoxic, single point] |  |
| c1ccc(-n2ncc3c(NCC4CCCO4)ncnc32)cc1 (configuration not stated) |  | inactive: 0.111% |
| O=C(Cn1c(=O)oc2ccccc21)Nc1nc(-c2ccc(Br)cc2)cs1 | inconclusive [cytotoxic, single point] |  |
| CC(=O)NC(CCc1ccc(Cl)c(Cl)c1)c1cccc(O)c(=O)c1 (configuration not stated) | inconclusive [cytotoxic, single point] |  |
| CN1CCN(C(=O)CCCN2C(=O)/C(=C/c3ccccc3)SC2=S)CC1 | inconclusive [cytotoxic, partial curve] |  |
| O=C(NCCCN1CCOCC1)c1cc(-c2cccs2)on1 | inconclusive [cytotoxic, partial curve] |  |
| COc1ccc(NC(=S)NCCN2CCC(C)CC2)cc1 | inconclusive [cytotoxic, single point] |  |
| Cc1ccc(NCc2nnc(SCC(=O)N(Cc3ccccc3)C(C)(C)C)o2)c(C)c1 | inconclusive [cytotoxic, single point] |  |
| CCN(CC)CCN(C(=O)c1cc2c(ccc3ccccc32)oc1=O)c1nc2cc3c(cc2s1)OCCO3 | inconclusive [cytotoxic, single point] |  |
| OC(c1cc(C(F)(F)F)nc2c(Cl)cc(Cl)cc12)C1CCCCN1 (configuration not stated) | inconclusive [cytotoxic, single point] |  |
| CCCc1nc2cc(C)c(Br)c(C)n2c1Cc1ccccc1OC | inconclusive [cytotoxic, single point] |  |
| COc1cc2nc(N3CCN(C)CC3)nc(NC3CCN(Cc4ccccc4)CC3)c2cc1OC | inconclusive [cytotoxic, single point] |  |
| COc1ccc(S(=O)(=O)Cc2ccc(C(=O)N3CCOCC3)o2)cc1 | inconclusive [rising, partial curve, poor fit] |  |
| Cc1ccsc1/C=N/Nc1nc(=O)[nH]nc1C | active: 23.1 µM |  |
| O=C(Nc1ccc(F)cc1)C(c1cc2ccccc2o1)N1CCN(c2ccncc2)CC1 (configuration not stated) | inconclusive [cytotoxic, single point] |  |
| COc1cc2c(cc1OC)CN(C(=O)c1ccc(OC)c([N+](=O)[O-])c1)CC2 |  | inactive: 4.63% |
| Cc1[nH]n(-c2ccccc2)c(=O)c1/C=N/NC(=O)c1ccoc1C | inconclusive [cytotoxic, partial curve] |  |
| CCNC(=S)NNC(=O)c1cc(-c2cccc(C)c2)nc2ccccc12 | inconclusive [cytotoxic, full curve] |  |
